{"source": "the supplement of paper PMC8728848", "binders": {"B1": {"name": "CML1 (Coprinopsis cinerea) (protein)", "chain": "MAIFHTGSELFIITRGPGKLTLLTWGGLNNLRSVIGAIPTENTGVTKWAVSFSHNYTRFSFIWEGQGEACYQIGNGLTRSPVGRSWSSSSTIHWGSSTVITEDVTSVVPGAVNRDKVTTAYALPDNL"}}, "test_in_all_cases": "glycan array binding signal (z-score within array); higher = stronger binding", "conditions_in_all_cases": "glycan notation: IUPAC condensed, linker removed", "key": {"[1]": {"biological_target": "Fuc(a1-2)[GalNAc(b1-3)]Gal", "how_it_was_run": "(§1)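 The binding signal is a Z-score computed within each array. Data were drawn from 3228 arrays in the Consortium for Functional Glycomics database, restricted to those with a known protein sequence. Scores were averaged over arrays of the same protein sequence at different concentrations or buffers, and over linkers, and negative values can be taken as non-binding.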"}, "Fuc(a1-3)GlcNAc": {"biological_target": "Fuc(a1-3)GlcNAc", "how_it_was_run": "as §1"}, "[2]": {"biological_target": "Fuc(a1-3)[Gal(b1-4)]Glc6S", "how_it_was_run": "as §1"}, "[3]": {"biological_target": "Fuc(a1-3)[Gal(b1-4)]GlcNAc", "how_it_was_run": "as §1"}, "[4]": {"biological_target": "Fuc(a1-3)[Gal(b1-4)]GlcNAc(b1-2)Man", "how_it_was_run": "as §1"}, "[5]": {"biological_target": "Fuc(a1-3)[Gal(b1-4)]GlcNAc(b1-2)Man(a1-3)[Fuc(a1-3)[Gal(b1-4)]GlcNAc(b1-2)Man(a1-6)]Man(b1-4)GlcNAc(b1-4)GlcNAc", "how_it_was_run": "as §1"}, "[6]": {"biological_target": "Fuc(a1-3)[Gal(b1-4)]GlcNAc(b1-2)Man(a1-3)[Fuc(a1-3)[Gal(b1-4)]GlcNAc(b1-2)Man(a1-6)]Man(b1-4)GlcNAc(b1-4)[Fuc(a1-6)]GlcNAc", "how_it_was_run": "as §1"}, "[7]": {"biological_target": "Fuc(a1-3)[Gal(b1-4)]GlcNAc(b1-3)Gal(b1-3)[Fuc(a1-4)]GlcNAc", "how_it_was_run": "as §1"}, "[8]": {"biological_target": "Fuc(a1-3)[Gal(b1-4)]GlcNAc(b1-3)Gal(b1-4)[Fuc(a1-3)]GlcNAc", "how_it_was_run": "as §1"}, "[9]": {"biological_target": "Fuc(a1-3)[Gal(b1-4)]GlcNAc(b1-3)Gal(b1-4)[Fuc(a1-3)]GlcNAc(b1-3)Gal(b1-4)[Fuc(a1-3)]GlcNAc", "how_it_was_run": "as §1"}, "[10]": {"biological_target": "Fuc(a1-3)[Gal(b1-4)]GlcNAc(b1-3)GalNAc", "how_it_was_run": "as §1"}, "[11]": {"biological_target": "Fuc(a1-3)[Gal(b1-4)]GlcNAc(b1-6)GalNAc", "how_it_was_run": "as §1"}, "[12]": {"biological_target": "Fuc(a1-3)[Gal(b1-4)]GlcNAc(b1-6)[Gal(b1-3)GlcNAc(b1-3)]Gal(b1-4)Glc", "how_it_was_run": "as §1"}, "[13]": {"biological_target": "Fuc(a1-3)[Gal(b1-4)]GlcNAc6S", "how_it_was_run": "as §1"}, "[14]": {"biological_target": "Fuc(a1-3)[Gal3S(b1-4)]Glc", "how_it_was_run": "as §1"}, "[15]": {"biological_target": "Fuc(a1-3)[Gal3S(b1-4)]GlcNAc", "how_it_was_run": "as §1"}, "[16]": {"biological_target": "Fuc(a1-3)[Gal3S(b1-4)]GlcNAc6S", "how_it_was_run": "as §1"}, "[17]": {"biological_target": "Fuc(a1-3)[GalNAc(b1-4)]GlcNAc", "how_it_was_run": "as §1"}, "[18]": {"biological_target": "Fuc(a1-3)[GalNAc(b1-4)]GlcNAc6S", "how_it_was_run": "as §1"}, "Fuc(a1-4)GlcNAc": {"biological_target": "Fuc(a1-4)GlcNAc", "how_it_was_run": "as §1"}, "Fuc(b1-3)GlcNAc": {"biological_target": "Fuc(b1-3)GlcNAc", "how_it_was_run": "as §1"}, "Gal(a1-2)Gal": {"biological_target": "Gal(a1-2)Gal", "how_it_was_run": "as §1"}, "Gal(a1-3)Gal": {"biological_target": "Gal(a1-3)Gal", "how_it_was_run": "as §1"}, "Gal(a1-3)Gal(b1-3)GlcNAc": {"biological_target": "Gal(a1-3)Gal(b1-3)GlcNAc", "how_it_was_run": "as §1"}, "[19]": {"biological_target": "Gal(a1-3)Gal(b1-3)GlcNAc(b1-2)Man", "how_it_was_run": "as §1"}, "[20]": {"biological_target": "Gal(a1-3)Gal(b1-3)GlcNAc(b1-2)Man(a1-3)[Gal(a1-3)Gal(b1-3)GlcNAc(b1-2)Man(a1-6)]Man(b1-4)GlcNAc(b1-4)GlcNAc", "how_it_was_run": "as §1"}, "[21]": {"biological_target": "Gal(a1-3)Gal(b1-3)GlcNAc(b1-3)GalNAc", "how_it_was_run": "as §1"}, "[22]": {"biological_target": "Gal(a1-3)Gal(b1-3)GlcNAc(b1-6)GalNAc", "how_it_was_run": "as §1"}, "[23]": {"biological_target": "Gal(a1-3)Gal(b1-3)[Fuc(a1-4)]GlcNAc(b1-2)Man(a1-3)[Gal(a1-3)Gal(b1-3)[Fuc(a1-4)]GlcNAc(b1-2)Man(a1-6)]Man(b1-4)GlcNAc(b1-4)GlcNAc", "how_it_was_run": "as §1"}, "Gal(a1-3)Gal(b1-4)Glc": {"biological_target": "Gal(a1-3)Gal(b1-4)Glc", "how_it_was_run": "as §1"}, "Gal(a1-3)Gal(b1-4)GlcNAc": {"biological_target": "Gal(a1-3)Gal(b1-4)GlcNAc", "how_it_was_run": "as §1"}, "[24]": {"biological_target": "Gal(a1-3)Gal(b1-4)GlcNAc(b1-2)Man", "how_it_was_run": "as §1"}, "[25]": {"biological_target": "Gal(a1-3)Gal(b1-4)GlcNAc(b1-2)Man(a1-3)[Gal(a1-3)Gal(b1-4)GlcNAc(b1-2)Man(a1-6)]Man(b1-4)GlcNAc(b1-4)GlcNAc", "how_it_was_run": "as §1"}, "[26]": {"biological_target": "Gal(a1-3)Gal(b1-4)GlcNAc(b1-3)GalNAc", "how_it_was_run": "as §1"}, "[27]": {"biological_target": "Gal(a1-3)Gal(b1-4)GlcNAc(b1-6)GalNAc", "how_it_was_run": "as §1"}, "[28]": {"biological_target": "Gal(a1-3)Gal(b1-4)[Fuc(a1-3)]GlcNAc", "how_it_was_run": "as §1"}, "[29]": {"biological_target": "Gal(a1-3)Gal(b1-4)[Fuc(a1-3)]GlcNAc(b1-2)Man(a1-3)[Gal(a1-3)Gal(b1-4)[Fuc(a1-3)]GlcNAc(b1-2)Man(a1-6)]Man(b1-4)GlcNAc(b1-4)GlcNAc", "how_it_was_run": "as §1"}, "Gal(a1-3)GalNAc": {"biological_target": "Gal(a1-3)GalNAc", "how_it_was_run": "as §1"}, "[30]": {"biological_target": "Gal(a1-3)[Gal(a1-4)]Gal(b1-4)GlcNAc", "how_it_was_run": "as §1"}, "[31]": {"biological_target": "Gal(a1-4)Gal(b1-3)GlcNAc(b1-2)Man(a1-3)[Gal(a1-4)Gal(b1-3)GlcNAc(b1-2)Man(a1-6)]Man(b1-4)GlcNAc(b1-4)GlcNAc", "how_it_was_run": "as §1"}, "Gal(a1-4)Gal(b1-4)Glc": {"biological_target": "Gal(a1-4)Gal(b1-4)Glc", "how_it_was_run": "as §1"}, "Gal(a1-4)Gal(b1-4)GlcNAc": {"biological_target": "Gal(a1-4)Gal(b1-4)GlcNAc", "how_it_was_run": "as §1"}, "[32]": {"biological_target": "Gal(a1-4)Gal(b1-4)GlcNAc(b1-2)Man(a1-3)[Gal(a1-4)Gal(b1-4)GlcNAc(b1-2)Man(a1-6)]Man(b1-4)GlcNAc(b1-4)GlcNAc", "how_it_was_run": "as §1"}, "[33]": {"biological_target": "Gal(a1-4)Gal(b1-4)GlcNAc(b1-3)Gal(b1-4)Glc", "how_it_was_run": "as §1"}, "Gal(a1-4)GlcNAc": {"biological_target": "Gal(a1-4)GlcNAc", "how_it_was_run": "as §1"}}, "note": "Some of the results follow."}
{"binder": "B1", "values": [{"measurement": "glycan array binding signal (z-score)", "setting": "[1]", "value": -0.318}, {"measurement": "glycan array binding signal (z-score)", "setting": "Fuc(a1-3)GlcNAc", "value": -0.344}, {"measurement": "glycan array binding signal (z-score)", "setting": "[2]", "value": -0.225}, {"measurement": "glycan array binding signal (z-score)", "setting": "[3]", "value": 0.691}, {"measurement": "glycan array binding signal (z-score)", "setting": "[4]", "value": -0.325}, {"measurement": "glycan array binding signal (z-score)", "setting": "[5]", "value": 0.242}, {"measurement": "glycan array binding signal (z-score)", "setting": "[6]", "value": -0.299}, {"measurement": "glycan array binding signal (z-score)", "setting": "[7]", "value": -0.006}, {"measurement": "glycan array binding signal (z-score)", "setting": "[8]", "value": 0.811}, {"measurement": "glycan array binding signal (z-score)", "setting": "[9]", "value": 2.45}, {"measurement": "glycan array binding signal (z-score)", "setting": "[10]", "value": -0.098}, {"measurement": "glycan array binding signal (z-score)", "setting": "[11]", "value": -0.348}, {"measurement": "glycan array binding signal (z-score)", "setting": "[12]", "value": -0.296}, {"measurement": "glycan array binding signal (z-score)", "setting": "[13]", "value": -0.346}, {"measurement": "glycan array binding signal (z-score)", "setting": "[14]", "value": 1.15}, {"measurement": "glycan array binding signal (z-score)", "setting": "[15]", "value": 2.79}, {"measurement": "glycan array binding signal (z-score)", "setting": "[16]", "value": 1.89}, {"measurement": "glycan array binding signal (z-score)", "setting": "[17]", "value": 0.228}, {"measurement": "glycan array binding signal (z-score)", "setting": "[18]", "value": 2.43}, {"measurement": "glycan array binding signal (z-score)", "setting": "Fuc(a1-4)GlcNAc", "value": -0.326}, {"measurement": "glycan array binding signal (z-score)", "setting": "Fuc(b1-3)GlcNAc", "value": -0.35}, {"measurement": "glycan array binding signal (z-score)", "setting": "Gal(a1-2)Gal", "value": -0.361}, {"measurement": "glycan array binding signal (z-score)", "setting": "Gal(a1-3)Gal", "value": -0.325}, {"measurement": "glycan array binding signal (z-score)", "setting": "Gal(a1-3)Gal(b1-3)GlcNAc", "value": -0.32}, {"measurement": "glycan array binding signal (z-score)", "setting": "[19]", "value": -0.327}, {"measurement": "glycan array binding signal (z-score)", "setting": "[20]", "value": -0.346}, {"measurement": "glycan array binding signal (z-score)", "setting": "[21]", "value": -0.349}, {"measurement": "glycan array binding signal (z-score)", "setting": "[22]", "value": -0.349}, {"measurement": "glycan array binding signal (z-score)", "setting": "[23]", "value": -0.239}, {"measurement": "glycan array binding signal (z-score)", "setting": "Gal(a1-3)Gal(b1-4)Glc", "value": -0.337}, {"measurement": "glycan array binding signal (z-score)", "setting": "Gal(a1-3)Gal(b1-4)GlcNAc", "value": -0.312}, {"measurement": "glycan array binding signal (z-score)", "setting": "[24]", "value": -0.347}, {"measurement": "glycan array binding signal (z-score)", "setting": "[25]", "value": -0.314}, {"measurement": "glycan array binding signal (z-score)", "setting": "[26]", "value": -0.337}, {"measurement": "glycan array binding signal (z-score)", "setting": "[27]", "value": -0.353}, {"measurement": "glycan array binding signal (z-score)", "setting": "[28]", "value": -0.346}, {"measurement": "glycan array binding signal (z-score)", "setting": "[29]", "value": -0.343}, {"measurement": "glycan array binding signal (z-score)", "setting": "Gal(a1-3)GalNAc", "value": -0.31}, {"measurement": "glycan array binding signal (z-score)", "setting": "[30]", "value": -0.318}, {"measurement": "glycan array binding signal (z-score)", "setting": "[31]", "value": -0.306}, {"measurement": "glycan array binding signal (z-score)", "setting": "Gal(a1-4)Gal(b1-4)Glc", "value": -0.322}, {"measurement": "glycan array binding signal (z-score)", "setting": "Gal(a1-4)Gal(b1-4)GlcNAc", "value": -0.327}, {"measurement": "glycan array binding signal (z-score)", "setting": "[32]", "value": -0.317}, {"measurement": "glycan array binding signal (z-score)", "setting": "[33]", "value": -0.319}, {"measurement": "glycan array binding signal (z-score)", "setting": "Gal(a1-4)GlcNAc", "value": -0.342}]}
